Among the data in paper PMC5392571, “A model for the conformational activation of the structurally quiescent metalloprotease ADAMTS13 by von willebrand factor” (The Journal of Biological Chemistry, 2017) are Kd values, retold here.

Holding throughout (details): both partners purified
Experiment [1] concerns the target T1, Recombinant human ADAMTS13 (wild type, full length) (human, UniProt Q76LX8 75-1427).
T1 construct: ADAMTS13, human, full-length construct (last residue 1427 by the printed limits of the fragments); signal peptide in the construct; also called WT ADAMTS13; source: HEK293S cells, purified
T1 sequence (looked up): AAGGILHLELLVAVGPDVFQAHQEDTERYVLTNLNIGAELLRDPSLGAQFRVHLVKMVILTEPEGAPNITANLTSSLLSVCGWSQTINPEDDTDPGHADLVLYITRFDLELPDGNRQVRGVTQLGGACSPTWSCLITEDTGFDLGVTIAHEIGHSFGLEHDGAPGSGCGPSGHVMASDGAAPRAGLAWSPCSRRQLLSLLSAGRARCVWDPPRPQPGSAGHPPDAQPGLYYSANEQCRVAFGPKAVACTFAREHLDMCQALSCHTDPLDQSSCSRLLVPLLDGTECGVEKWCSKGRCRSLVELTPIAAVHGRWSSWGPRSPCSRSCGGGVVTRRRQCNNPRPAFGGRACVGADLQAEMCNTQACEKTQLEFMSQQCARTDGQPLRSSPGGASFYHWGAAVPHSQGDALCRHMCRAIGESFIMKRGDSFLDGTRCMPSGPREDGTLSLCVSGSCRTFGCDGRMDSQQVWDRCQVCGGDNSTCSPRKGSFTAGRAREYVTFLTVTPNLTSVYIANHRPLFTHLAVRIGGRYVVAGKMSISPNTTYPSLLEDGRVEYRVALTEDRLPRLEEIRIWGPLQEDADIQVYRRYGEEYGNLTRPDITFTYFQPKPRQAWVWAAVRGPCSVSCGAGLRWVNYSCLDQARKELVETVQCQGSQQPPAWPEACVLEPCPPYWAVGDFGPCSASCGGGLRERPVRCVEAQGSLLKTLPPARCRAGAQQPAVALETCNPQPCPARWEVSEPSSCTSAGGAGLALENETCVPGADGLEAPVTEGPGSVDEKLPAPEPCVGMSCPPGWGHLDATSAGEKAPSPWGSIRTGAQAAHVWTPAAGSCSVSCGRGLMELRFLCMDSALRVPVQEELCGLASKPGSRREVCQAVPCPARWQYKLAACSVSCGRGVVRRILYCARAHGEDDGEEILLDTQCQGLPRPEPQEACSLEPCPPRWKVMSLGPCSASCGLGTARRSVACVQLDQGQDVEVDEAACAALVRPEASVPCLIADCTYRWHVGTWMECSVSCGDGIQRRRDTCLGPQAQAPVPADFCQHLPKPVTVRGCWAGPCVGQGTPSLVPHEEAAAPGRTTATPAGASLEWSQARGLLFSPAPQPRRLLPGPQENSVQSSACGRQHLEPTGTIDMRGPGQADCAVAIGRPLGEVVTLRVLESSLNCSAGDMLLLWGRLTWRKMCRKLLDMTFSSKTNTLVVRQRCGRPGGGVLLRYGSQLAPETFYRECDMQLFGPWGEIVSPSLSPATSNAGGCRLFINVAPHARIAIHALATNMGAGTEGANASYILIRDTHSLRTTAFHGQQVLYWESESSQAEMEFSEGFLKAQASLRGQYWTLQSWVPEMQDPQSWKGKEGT
Nature of the experiment: SPR; BIAcore T100, CM5 chip; ADAMTS13, its truncation variants or CUB fragments immobilised, VWF D4-CK as analyte; 10 mM HEPES, 150 mM NaCl, pH 7.4, 0.0034 mM EDTA, 0.005% Tween 20; global analysis.

Experiment [2] concerns the target T2, WTΔCUB2 (ADAMTS13 residues 1–1298) (human, UniProt Q76LX8 30-1298).
T2 construct: signal peptide in the construct; ADAMTS13, human, residues 1-1298 (truncated after CUB1); Generated by inverse PCR from the full-length construct; also called ADAMTS13ΔCUB2; source: HEK293S cells, purified
T2 sequence (looked up): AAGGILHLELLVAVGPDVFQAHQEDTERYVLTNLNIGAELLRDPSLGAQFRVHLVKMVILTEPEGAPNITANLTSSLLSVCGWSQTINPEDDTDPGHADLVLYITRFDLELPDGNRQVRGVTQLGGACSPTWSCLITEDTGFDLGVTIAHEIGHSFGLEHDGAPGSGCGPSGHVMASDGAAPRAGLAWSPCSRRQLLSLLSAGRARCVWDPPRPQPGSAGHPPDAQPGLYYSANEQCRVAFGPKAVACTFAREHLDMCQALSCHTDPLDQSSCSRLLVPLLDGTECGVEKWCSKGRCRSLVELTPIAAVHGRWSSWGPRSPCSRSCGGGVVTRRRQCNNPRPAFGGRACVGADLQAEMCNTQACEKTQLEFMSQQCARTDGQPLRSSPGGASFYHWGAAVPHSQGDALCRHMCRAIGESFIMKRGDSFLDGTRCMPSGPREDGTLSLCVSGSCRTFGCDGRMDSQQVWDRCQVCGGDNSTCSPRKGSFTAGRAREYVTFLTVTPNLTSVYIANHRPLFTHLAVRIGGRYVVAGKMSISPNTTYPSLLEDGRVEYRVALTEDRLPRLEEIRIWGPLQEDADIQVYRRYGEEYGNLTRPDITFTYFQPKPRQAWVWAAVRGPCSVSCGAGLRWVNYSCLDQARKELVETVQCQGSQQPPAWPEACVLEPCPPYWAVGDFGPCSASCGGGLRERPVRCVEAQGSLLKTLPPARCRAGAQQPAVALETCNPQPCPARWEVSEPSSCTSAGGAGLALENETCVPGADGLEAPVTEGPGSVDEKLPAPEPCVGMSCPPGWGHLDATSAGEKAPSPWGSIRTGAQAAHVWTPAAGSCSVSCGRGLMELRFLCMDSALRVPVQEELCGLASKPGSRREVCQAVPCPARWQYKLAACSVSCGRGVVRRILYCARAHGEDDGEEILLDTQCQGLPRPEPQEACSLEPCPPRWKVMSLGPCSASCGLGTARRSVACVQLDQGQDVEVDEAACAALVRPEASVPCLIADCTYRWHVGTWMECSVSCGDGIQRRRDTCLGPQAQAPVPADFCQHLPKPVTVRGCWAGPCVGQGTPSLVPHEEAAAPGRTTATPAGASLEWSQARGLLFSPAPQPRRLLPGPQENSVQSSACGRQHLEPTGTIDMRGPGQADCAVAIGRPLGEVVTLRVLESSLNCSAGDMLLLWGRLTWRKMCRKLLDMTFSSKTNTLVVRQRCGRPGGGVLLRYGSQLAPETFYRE
Described as above.

For experiment [3], the target named is T3, WTΔCUB1-2 (ADAMTS13 residues 1–1191) (human, UniProt Q76LX8 30-1191).
T3 construct: signal peptide in the construct; ADAMTS13, human, residues 1-1191 (truncated after TSP8); Generated by inverse PCR from the full-length construct; also called ADAMTS13ΔCUB1-2; source: HEK293S cells, purified
T3 sequence (looked up): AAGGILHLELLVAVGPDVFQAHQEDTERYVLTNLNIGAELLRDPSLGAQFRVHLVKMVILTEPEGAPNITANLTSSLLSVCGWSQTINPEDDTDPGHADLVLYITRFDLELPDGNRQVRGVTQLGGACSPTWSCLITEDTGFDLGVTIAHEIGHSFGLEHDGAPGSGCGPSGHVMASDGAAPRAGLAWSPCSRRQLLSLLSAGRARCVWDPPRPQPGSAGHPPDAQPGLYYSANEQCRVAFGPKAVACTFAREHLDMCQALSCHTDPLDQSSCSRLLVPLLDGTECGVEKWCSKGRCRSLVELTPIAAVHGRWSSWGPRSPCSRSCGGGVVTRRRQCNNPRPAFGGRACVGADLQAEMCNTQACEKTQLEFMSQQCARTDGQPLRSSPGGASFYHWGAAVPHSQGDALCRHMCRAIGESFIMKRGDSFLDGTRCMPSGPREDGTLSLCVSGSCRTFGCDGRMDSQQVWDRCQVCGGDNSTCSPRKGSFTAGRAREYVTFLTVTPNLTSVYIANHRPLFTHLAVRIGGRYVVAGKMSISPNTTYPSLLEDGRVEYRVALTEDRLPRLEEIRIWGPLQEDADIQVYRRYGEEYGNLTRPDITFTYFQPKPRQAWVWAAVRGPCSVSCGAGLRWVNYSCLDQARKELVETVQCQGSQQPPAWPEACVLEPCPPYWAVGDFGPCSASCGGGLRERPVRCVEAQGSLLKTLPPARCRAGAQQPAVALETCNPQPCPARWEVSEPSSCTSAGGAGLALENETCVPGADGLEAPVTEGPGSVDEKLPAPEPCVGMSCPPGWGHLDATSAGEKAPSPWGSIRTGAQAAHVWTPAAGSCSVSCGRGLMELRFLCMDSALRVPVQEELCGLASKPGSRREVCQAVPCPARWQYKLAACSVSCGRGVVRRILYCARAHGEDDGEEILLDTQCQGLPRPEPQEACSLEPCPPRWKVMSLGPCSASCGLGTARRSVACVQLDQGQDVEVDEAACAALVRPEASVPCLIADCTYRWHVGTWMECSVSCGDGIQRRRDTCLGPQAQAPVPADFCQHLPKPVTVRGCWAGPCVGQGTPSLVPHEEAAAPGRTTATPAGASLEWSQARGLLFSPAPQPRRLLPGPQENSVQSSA
Described as above.

The target in experiment [4] is WTΔTSP8 (ADAMTS13 residues 1–1075, 1131–1427) (human, UniProt Q76LX8 30-1427, ADAMTS13 residues 1–1075, 1131–1427, Construct is residues 1-1075 + 1131-1427; signal peptide (1-29) and propeptide (30-74) taken as removed on secretion from HEK293S (convention from UniProt features); C-terminal Myc/His6 tag left out;). Nature of the experiment: ELISA; equilibrium plate binding assay; 50 nM ADAMTS13 or variant immobilised on microtiter wells; VWF D4-CK 0–500 nM for 2 h at 37 °C in PBS, 0.1% BSA, pH 7.4; detected with HRP-conjugated anti-VWF pAb; one-binding site fit; apparent KD. (In general: ELISA stands for enzyme-linked immunosorbent assay.)

Experiment [5] concerns the target T1, Recombinant human ADAMTS13 (wild type, …). The experiment is described as above.
The target of experiment [6] is T2, WTΔCUB2 (ADAMTS13 residues 1–1298). The description is as above.
Experiment [7] concerns the target T3, WTΔCUB1-2 (ADAMTS13 residues 1–1191). Described as above.

B1: dimeric VWF D4-CK domain fragment (VWF […]) (domain or fragment)
chain: not shown
notes: von Willebrand factor, […] (D4 to CK domains); source: HEK293S, transiently expressed, purified by FPLC
Regarding B1, the Kd in experiment [1] was 114 nM; in experiment [2] it was 132 nM; in experiment [3], 131 nM; in experiment [4] it was about 1000 nM; in experiment [5], 146 nM; in experiment [6], 167 nM. Moreover, the Kd in experiment [7] turned out to be 184 nM.
